Laboratory results taken from the RNAGym collection of RNA variant scans (doi:10.7554/elife.90254).
Read counts are not given, so values of variants with three or more changes are uncertain.

B1: OR4K15 (parent)
chain: GUUAACGGUCAUAGGCCAUGGAAACUAGGAGCACCAUUUCGCUGCCAGUGAAGAAAUGAACAAAGAAAAUCUGGGCCAGGCAGGCAUCAAAAGAAAUAGUCUUGCGCUCAACCAGAAAGUCUGUAAUCAUUUUAAGGGUA

Variants of: B1
Test: self-cleavage, relative activity (ratio to wild type); higher = more cleavage; in vitro, sequencing; the parent is a self-cleaving ribozyme

Variant	self-cleavage
GUUAACGGUCAUAGGCCAUGGAAACUAGGAGCGCCAUCUCGCUGCCGGUGAAGAAAUGAACAAAGAAAAUCUGGGCCAGGCAGGCAUCAAAAGAAAUAGUCUUGCGCUCAACCAGAAAGUCUGUAAUCAUUUUAAGGGUA [A33G U38C A47G]	0.89
GUUAACGGUCAUAGGUCAUGGAGACUAGGAGCACCAUUCCGCUGCCAGUGAAGAAAUGAACAAAGAAAAUCUGAGCCAGGCAGGCAUCAAAAGAAAUAGUCUUGCGCUCAACCAGAAAGUCUGUAAUCAUUUUAAGGGUA [C16U A23G U39C G74A]	0.45
GUUAACGGUCAUAGGCCAUGGAAACUAGGAGCACCAUUUCGCCGCCAGUGAAGAAAUGAACGAAGAAAAUCUGGGCCAGGCAGGCAUCAAAAGAAAUAGUCUUGCGCUCAACCAGAAAGUCUGUAAUCACUUUAAGGGUA [U43C A62G U130C]	1.25
GUUAACGGUCGUAGGCCAUGGAAACUAGGAGCACCACUUCGCUGCCAGUGAAGAAAUGAACAAAGAAAAUCUGGGCCAGGCAGGCAUCAAAAGAAAUAGUCCUGCGCUCAACCAGAAAGCCUGUAAUCAUUUUAAGGGUA [A11G U37C U102C U120C]	1.59
GUUAACGGUCAUAGGCCAUGGAAACUAGGAGCACCAUAUCGCUGCCAGUGAAGAAAUGGACAAAGAAAAUCUGGGCCAGGCAGGCAUCAAGAGAAAUAGUCUUGCGCUCAACCAGAAAGUCUGUAAUCAUUUUAAGGGUA [U38A A59G A91G]	0.77
GUUAACGGUCAUAGGCCAUGGAAACUAGGAGCACCAUUUCGCUGCCAAUGAAGAAAUGGACAAAGAAAAUCUGGGCCAGGCAGGCAUCAAAAGAAAUAGUCUUGCGCUCGACCAGAAAGUCUGUAAACAUUUUAAGGGUA [G48A A59G A110G U127A]	0.21
GUUAGCGGUCAUAGGCCAUGGAAACUAGGAGCACCACUUCGCUGCCAGUGAAGAAAUGGACAAAGAAAAUCUGGGCCAGGCAGGCAUCAAAAGAAAUAGUCUUGCGCUCAACCAGAAAGUCUGUAAUCAUUUUAAGGGUA [A5G U37C A59G]	1.52
GUUAACGGUCAUAGGCCAUGGAAGCUAGGAGCACCAUUUCGCUGCCAGUGAAGAAGUGAACAAAGAAAAUCUGGGCCAGGCAGGCAUCAAAAGAAAUAGUCCUGCGCUCAACCAGAAAGUCUGUAAUCAUUUUAAGGGUA [A24G A56G U102C]	1.29
GUUAACGGUCAUAGGCCAUGGAAACUAGGAGCACCAUUUCGCUGCCUGUGAAGAAAUGAACAAAGAAAAUCUGGGCCAGGCAGGCAUCUAAAGAAAUAGUCUUGCGCUCAACCAGAAAGUCUGUAAUCAUUCUAAGGGUA [A47U A89U U132C]	1.22
GUUAACGGUCAUAGGUCAUGGAAACUAGGAGCACCAUUUCGCUGCCAGUGAAGAAAUGCACAAAGAAAAUCUGGGCCAGGCAGGCAUCAAAAGAAAUAGUCUCGCGCUCAACCAGAAAGUCUGUAAUCAUUUUAAGGGUA [C16U A59C U103C]	0.6
GUUAACGGUCAUAGGCCAUGGAGACUAGGAGCACUAUUUCGCUGCCAGUGGAGAAAUGAACAAAGAAAAUCUGGGCCAGGCAGGCAUCAAAAGAAAUAGUCUUGCUCUCAACCAGAAAGUCUGUAAUCAUUUUAAGGGUA [A23G C35U A51G G106U]	0.01
GUUAACGGUCAUAGGCCAUGGAAACUAGGAGCACCAUUUCGCUGCCAGUGAAGAAAUGAACAAAGAAAAUCUGGGCCAGGCAGGCAUCAAAAUAAAUAGUCUUGCGCUCAACCAGAAGGUCUGUAAUCAUUCUAAGGGUA [G93U A118G U132C]	1.85
GUUAACGGUCAUAGGCCAUGGAAACUAGGAGCACCAUCUCGCUGCCAGUGAAGAAAUGAUCAAAAAAAAUCUGGGCCAGGCAGGCAUCAAAAGAAAUAGUCUUGCGCUCAACCAGAAAGUCUGUAAUCAUUUUAAGGGUA [U38C A60U G65A]	1.77
GUUAACGGUCAUAGGCCAUGGAAACUAGGAGCACCAUUUCGCCGCCAGUGAAGAAAUGAACAAAGAAAGUCAGGGCCAGGCAGGCAUCAAAAGAAAUAGUCUUGCGCUCAACCAGAAAGUCUGUAAUCAUUUUAAGGGUA [U43C A69G U72A]	0.45
GUUAACGGUCAUAGGCCAUGGAAACUAGGUGCACCAUUUCGCUGCCAGUGAAGAAAUGAACAAAGAAAAUCUGGGCCAGGCAGGCAUCAAAAGAAAUGGUCUUGCGCUCAACCAGAAAGUCUGUAAUCAUUGUAAGGGUU [A30U A98G U132G A140U]	0.39
GUUAACGGUCAUAGGCCAUGGAAACUAGGAGCACCAUUUCGCUGCCAGUGAAGAAAAGAACAAAGAAAAUCUGGGCCAAGCAGGCAUCAAAAGAAAUAGUCUUGCGCUCGACCAGAAAGUCUGUAAUCAUUUUAAGGGUA [U57A G79A A110G]	0.03
GUUAACGGUCAUAGGCCAUGGAAACAAGGAGCACCAUUUCGCUGCCAGUGAAGAAAUGAACAAAGAAAAUCUGGGCCAGGCAGGCAACAAAAGAAAUAGUCUUGCGCUCAACCAGAGGGUCUGUAAUCAUUUUAAGGGUA [U26A U87A A117G A118G]	1.61
GUUAACGGUCAUAGGCCAUGGAAACUAGGAGCACCUUUUCGCUGCCAGUGAAGAAAUGUACAAAGAGAAUCUGGGCCAGGCAGGCAUCAAAAGAAAUAGUCUUGCGCUCAACCAGAAAGUCUGUAAUCAUUUUAAGGGUA [A36U A59U A67G]	0.65
GUUAACGGUCAUAGGCCAUGGAAACUAGGAGCACCAUUUCGCUGCCAGAGAAGAGAUGAACAGAGAAAAUCUGGGCCAGGCAGGCAUCAGAAGAAAUAGUCUUGCGCUCAACCAGAAAGUCUGUAAUCAUUUUAAGGGUA [U49A A55G A63G A90G]	0.73
GCUAACGGUCAUAGGCCAUGGAAACUAGGAGCACCGUUUCGCUGCCAGUGGAGAAAUGAACAAAGAAAAUCUGGGCCAGGCAGGCAUCAAAAGAAAUAGUCUUGCGCUCAACCAGAAAGUCUGUAAUCAUUUUAAGGGUA [U2C A36G A51G]	1.21
GUUAACGGUCAUAGGCCAUGGAAACUAGGAGCACCAUUUCGCUGCCAGUGAAGGAAUGAACAAAGAAAGUCUGGGCCAGGCAGGCAUCAAAAGAAAUAGCCUUGCGCUCAACCAGAAAGUCUGUAAUCAUUUUAAGGGUA [A54G A69G U100C]	1.55

Variant	self-cleavage
GUCAACGGUCAUAGGCCAUGGGAACUAGGAGCACCAUUUCGCUGCCAGUGAAGGAAUGAACAAAGAAAAUCUGGGCCAGGCAGGCAUCGAAAGAAAUAGUCUUGCGCUCAACCAGAAAGUCUGUAAUCAUUUUAAGGGUA [U3C A22G A54G A89G]	0.35
GUUAACGGUCAUAGGCCAUGGAAACUAGGAGCACCAUUUCGCUGCCAGUGAAGAAAUGAACAAAGAAAUUCUGGGCCAGGCAGGCAUCAAAAGAAGUAGUCUUGCGCUCAACCAGAAAGUCUGUGAUCAUUUUAAGGGUA [A69U A96G A125G]	0.95
GUUAACGGUCAUAGGCCAUGGAAACUAGGAGCACCAUUUCGCUGCCAGCGAAGAAAUGAACAAAGAAAAUCUGGGCCAGGCAGGCAUCAAAAGAAAUAGUCUUGCGCUCAACCAGAAAGUCUGUUGUCAUUUUAAGGGUA [U49C A125U A126G]	0.81
GUUAACGGUCAUAGGCCAUGGAGACUAGGAGCACCAUUUCGCUGCCAGUGAAGAAAUGAACAAAGAAAAUCUGGGCCAGGCAGGCAUCAAAAGGAGUAGUCUUGCGCUCAACCAGAAAGUCUGUAAUCAUUUUAAGGGUA [A23G A94G A96G]	2.02
GUUAACGGUCAUAGGCCAUGGAAACUAGGAGCACCAUUUCGCUGCCUGUGAAGAAACGAACAAAGAAAAUCUGGGCCAGGCAGGCAUCAAGAGAAAUAGUCUUGCGCUCAACCAGAAAGUCUGUAUUCAUUUUAAGGGUA [A47U U57C A91G A126U]	0.1
GUUAACGGUCAAAGGCCAUGGAAACUAGGAGCACCAUUUCGCUGCCAGUGAAGAAAUGAACAAAGAAAAUCUGGGCCAGGCAGGCAUCAAGAGAAAUAGUCUUGCGCUCAACCAGGAAGUCUGUAAUCAUUUUAAGCGUA [U12A A91G A116G G137C]	0.27
GUUAACGGUCAUAGACCAUGGAAACUAGGAGCACCAUUUCGCUGCCAGUGAAGAAAUGAACAAAGAAAAUCUGGGCCAGGCAGGCAUCAAAAGGAAUAGUCUUGCGCUUAACCAGAAAGUCUGUAAUCAUUUUAAGGGUA [G15A A94G C109U]	0.43
GUUAACGGUCAUAGGCCAUGGAAACUAGGAGCACCAUUUCGCUGCCAGUGAAGAGAUGAACAAAGAAAAUCUGGGCCAGGCAGGCAUCAUAAGAAAUAGUCUUGCGCUCAGCCAGGAAGUCUGUAAUCAUUUUGAGGGUA [A55G A90U A111G A116G A134G]	0
GUUAACGGUCAUAGGCCAUGGAAACUAGGAGCACCAUUUCGCUGCCAGUGAAGAAAUGAACAAAGAAAAUCAGGGCCAGGCAGGCAUCAAAAGAAAUAGGCUCGCGCUCAACCAGAAAGUCUGUAAUCAUUUUAAGGGUA [U72A U100G U103C]	0.07
GUUAACGGUCAUAGGCCAUGGAAACUAGGAGCACCAUUUCGCAGCCAGUGAAGAAAUGAACAAAGAAAAUCUGGGCCAGGCAGGCAUCAAAAGAAAUAGUCUCGCGCUCUACCAGAAAGUCUGUAAUCAUUUUAAGGGUA [U43A U103C A110U]	0.96
GUUAACGGUCAUAGGCCAUGGAAACUAGGAGCACCAUUUCUCUGCCAGUGAAGAAAUGAACAAAGAAAAUCUGGGCCAGGCAGGCAUCAAAAGAAAUAGCCUUGCGCUCAACCAGAAAGUCUAUAAUCAUUUUAAGGGUA [G41U U100C G123A]	2.43
GUUAACGGUCAUAGGCCAUGGAAACUAGGGGCACCAUUUCGCUGCCAGUGAAGAGAUGAACUAAGAAAAUCUGGGCCAGGCAGGCAUCAAAAGAAAUAGUCUUGCGCUCAACCAGAAAGUCUGUAAUCAUUUUAAGGGUA [A30G A55G A62U]	0.52
GUUAACGGUCAUAGGCCAUGGGAACUAGGAGCACCAUUUCGUUGCCAGUGAAGAAAUGAACAAAGAAAAUCUGGGCCAGGCAGGCAUCAAAAGAAAUAGUCUUGCGCUCAACCAGAAAGUCUGUAAUCAUUUUAAGGGCA [A22G C42U U139C]	0.88
GUUAACGGUCAUAGGCCUUGGAAACUAGGAGCACCAUUUCGCUGCCAGUGAAGAAAUGAACAGAGAAAAUCUGGGCCAGGCAGGCAUCAAAAGAAAUAGUCUUGCGCUCAACCAGAAAGUCUAUAAUCAUUUUAAGGGUA [A18U A63G G123A]	1.25
GUUAACGGUCAUAGGCCAUGGAAGCUAGGAGCACCACUUCGCUGCCAGUGAAGAAAAGAACAAAGAAAAUCUGGGCCAGGCAGGCAUCAAAAGAAAUAGUCUUGCGCUCAACCAGAAAGUCUGUAAUCAUUUUAAGGGUA [A24G U37C U57A]	0.74
GUUAACGGUCAUAGGCCAUGGAAGCUAGGAGCACCAUCUCGCUGCCAGUGAAGCAAUGAACAAAGAAAAUCUGGGCCAGGCAGGCAUCAAAAGAAAUAGUCUUGCGCUCAACCAGAAGGUCUGUAAUCAUUUUAAGGGUA [A24G U38C A54C A118G]	1.73
GCUAACGGUCAUAGGCCAUGGAAACUAGGAGCACCAUUUCGCUGCCAGUGAAGAAAUGAACAAAGAAAAUCUGGGCCAGGUAGGCAUCAAAAGAAAUAGUCUUGCGCUCAACCAGAAAGUCUGUAAUCGUUUUAAGGGUA [U2C C81U A129G]	0.28
GUUAACGGUCAUAGGCCAUGGAAACUAGGAGCACCAUUUCGCUGCCAGUGAAGAAAUGAACAAAGAAAAUCUGGGCCAGGCAGGCAUCAAAAGAAAUAGUCUUGCGCUCAACCAGAGAGUCUGUAGUCACUUUAAGGGUA [A117G A126G U130C]	1.11
GUUAAAGGUCAUAGGCCAUGGAAACUAGGAGCACCAUUUCGCUGCCAGUGAAGAAAUGAACAAAGAAGAUCUGGGCCAGGCAGGCAUCAAAAGAAAUAGUCUUGCGCUCAACCAGAAAGUCUGUAGUCAUUUUAAGGGUA [C6A A68G A126G]	0.95
GUUAACAGUCAUAGGCCAUGGAAACUAGGAGCACCAUUUCGCUGCCAGUGAAGAAAUGAACAAAGAAAAUCUGGGCCAGGCAGGCGUCAAAAGAAAUAGUCUUGCGCUCAACCAGAAAGUCUGUAAUCAUUUUAUGGGUA [G7A A86G A135U]	1.59
